Experimental data from the supplement of paper PMC6609913.
Structures can show the parent of a compound that is named as a salt. ± gives the standard deviation of the averaged measurements. Over roughly 1,300 compounds, “normalised cell viability” has its median near 1; the lowest 2% begin near 0.14. The list shows a part of the results.

System: V-C8 (BRCA2-deficient hamster cells)
Experiment: normalised cell viability (fraction of plate median); higher = more viable cells (less toxic)
Conditions: 5 µM
Method in brief: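 Hamster V-C8 cells lacking BRCA2 and V-C8 cells with BRCA2 restored were seeded in 96-well plates. Library drugs (10 mM DMSO stocks) were added 24 h later at 5 μM in 100 μl medium, next to DMSO control wells, for 3 days (screen 1) or 6 days (screen 2). Cell viability was read by resazurin assay, median-plate normalised (modified robust per cent of sample), and triplicate wells were averaged.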

Row | SMILES | normalised cell viability (treatment time: 3 days) | normalised cell viability (treatment time: 6 days)
1 | c1ccc2c(CC3=NCCN3)cccc2c1 [Naphazoline hydrochloride] | 1.103 ± 0.0068 | 1.1 ± 0.026
2 | CC(=O)OCC(=O)[C@@]12OC(C)(C)O[C@@H]1C[C@H]1[C@@H]3C[C@H](F)C4=CC(=O)C=C[C@]4(C)[C@@]3(F)[C@@H](O)C[C@@]12C [Fluocinonide] | 1.01 ± 0.015 | 0.9936 ± 0.0099
3 | CCN(CC)CC(=O)Nc1c(C)cccc1C [Lidocaïne hydrochloride] | 1.02 ± 0.032 | 0.999 ± 0.03
4 | CC(=O)NS(=O)(=O)c1ccc(N)cc1 [Sulfacetamide sodic hydrate] | 0.993 ± 0.045 | 1.06 ± 0.073
5 | Cc1cn([C@H]2C=C[C@@H](CO)O2)c(=O)[nH]c1=O [Stavudine] | 1.05 ± 0.077 | 1.23 ± 0.35
6 | C=CC1=C(C(=O)O)N2C(=O)[C@@H](NC(=O)/C(=N\O)c3csc(N)n3)[C@H]2SC1 [Cefdinir] | 1.016 ± 0.0043 | 1.01 ± 0.06
7 | COc1cccc2c1C(=O)c1c(O)c3c(c(O)c1C2=O)C[C@@](O)(C(C)=O)C[C@@H]3O[C@H]1C[C@H](N)[C@H](O)[C@H](C)O1 [Daunorubicin hydrochloride] | 0.141 ± 0.011 | 0.124 ± 0.0055
8 | Cc1c(NC(=O)c2cccnc2)c(=O)n(-c2ccccc2)n1C [Nifenazone] | 0.973 ± 0.068 | 1.02 ± 0.061
9 | CS(=O)(=O)OCCCCOS(C)(=O)=O [Busulfan] | 0.778 ± 0.0098 | 0.845 ± 0.052
10 | CC(C)NC[C@@H](O)COc1ccc(CC(N)=O)cc1 [(R)-(+)-Atenolol] | 0.8746 ± 0.0079 | 0.934 ± 0.083
11 | NS(=O)(=O)c1cc2c(cc1C(F)(F)F)NCNS2(=O)=O [Hydroflumethiazide] | 0.98 ± 0.037 | 0.9712 ± 0.0089
12 | CC[C@@H]1C(=O)OC[C@@H]1Cc1cncn1C [Pilocarpine nitrate] | 1.04 ± 0.032 | 1.07 ± 0.05
13 | CN(CCCCCCCCCCN(C)C(=O)Oc1cccc([N+](C)(C)C)c1)C(=O)Oc1cccc([N+](C)(C)C)c1 [Demecarium bromide] | 0.828 ± 0.022 | 0.812 ± 0.013
14 | CC(=O)N(CC(O)CO)c1c(I)c(C(=O)NCC(O)CO)c(I)c(C(=O)NCC(O)CO)c1I (stereo not given) [Iohexol] | 1.08 ± 0.043 | 1.02 ± 0.026
15 | COC(=O)Nc1nc2cc(Sc3ccccc3)ccc2[nH]1 [Fenbendazole] | 0.187 ± 0.0098 | 0.181 ± 0.013
16 | CN1CCN(CC(=O)N2c3ccccc3C(=O)Nc3cccnc32)CC1 [Pirenzepine dihydrochloride] | 1.07 ± 0.067 | 1.11 ± 0.1
17 | Cn1c(=O)c2c(ncn2CC2OCCO2)n(C)c1=O [Doxofylline] | 1 ± 0.036 | 1.07 ± 0.029
18 | CCOc1nc2cccc(C(=O)O)c2n1Cc1ccc(-c2ccccc2-c2nnn[nH]2)cc1 [Candesartan] | 1.027 ± 0.01 | 1.003 ± 0.0042

Row | SMILES | normalised cell viability (treatment time: 3 days) | normalised cell viability (treatment time: 6 days)
19 | C[C@@](Cc1ccc(O)c(O)c1)(NN)C(=O)O [Carbidopa] | 1.12 ± 0.052 | 0.994 ± 0.089
20 | Nc1ncnc2c1ncn2[C@@H]1O[C@H](CO)[C@@H](O)[C@@H]1O [Vidarabine] | 0.921 ± 0.021 | 0.964 ± 0.032
21 | CCC1(c2ccccc2)C(=O)NCNC1=O [Primidone] | 1.01 ± 0.013 | 0.993 ± 0.051
22 | CC(=O)OC[C@H]1O[C@@H]([S-])[C@H](OC(C)=O)[C@@H](OC(C)=O)[C@@H]1OC(C)=O.CCP(CC)CC.[Au+] [Auranofin] | 0.117 ± 0.0046 | 0.141 ± 0.0027
23 | CN(C)CCC(c1ccc(Br)cc1)c1ccccn1 (stereo not given) [Brompheniramine maleate] | 0.902 ± 0.041 | 0.961 ± 0.072
24 | O=C1CC[C@@H](C(=O)N2CSC[C@H]2C(=O)O)N1 [Pidotimod] | 1.04 ± 0.062 | 1.07 ± 0.032
25 | Oc1c(Cl)cc(Cl)c2cccnc12 [Chloroxine] | 0.57 ± 0.026 | 0.583 ± 0.014
26 | c1ccc(-c2ccc(C(c3ccccc3)n3ccnc3)cc2)cc1 (stereo not given) [Bifonazole] | 0.878 ± 0.032 | 0.74 ± 0.06
27 | CCN(CC)C(=O)c1ccc(O)c(OC)c1 [Ethamivan] | 1.06 ± 0.014 | 1.03 ± 0.066
28 | O=C(c1ccc(F)cc1)C1CCN(CCn2c(=O)[nH]c3ccccc3c2=O)CC1 [Ketanserin tartrate hydrate] | 0.994 ± 0.049 | 0.976 ± 0.08
29 | CCCOc1ccc2[nH]c(NC(=O)OC)nc2c1 [Oxibendazol] | 0.185 ± 0.0067 | 0.183 ± 0.0049
30 | Cc1[nH]cnc1CN1CCc2c(c3ccccc3n2C)C1=O [Alosetron hydrochloride] | 1.1 ± 0.028 | 1.09 ± 0.014
31 | O=C1NCC2(CCN(CCc3ccccc3)CC2)O1 [Fenspiride hydrochloride] | 1.04 ± 0.069 | 1.01 ± 0.018
32 | Clc1ccc2c(c1)CCc1cccnc1C2=C1CCNCC1 [Desloratadine] | 0.412 ± 0.03 | 0.256 ± 0.019
33 | CN(CCCN1c2ccccc2CCc2ccccc21)CC(=O)c1ccc(Cl)cc1 [Lofepramine] | 1.05 ± 0.11 | 1.04 ± 0.075
34 | CN(C)CCOC(c1ccccc1)c1ccccc1.Cn1c(=O)c2[nH]c(Cl)nc2n(C)c1=O [Dimenhydrinate] | 1.08 ± 0.086 | 1.04 ± 0.024
35 | CC(=O)O[C@]1(C(C)=O)CC[C@H]2[C@@H]3C=C(Cl)C4=CC(=O)CC[C@]4(C)[C@H]3CC[C@@]21C [Chlormadinone acetate] | 0.998 ± 0.06 | 0.983 ± 0.043
